{
  "source": "patent US20210363232A1",
  "about": "(Eli Lilly, published 2021)",
  "binders": {"B1": {"name": "Human CSF1R Fc fusion protein (Exemplified compound D) (Fc fusion, not shown: a dimerising Fc or GST)", "chain": "not shown"}},
  "assay_in_all_cases": "cell-based or functional assay",
  "key": {"mature Human IL-34 [1]": {"molecular_target": "T1, mature Human IL-34 (human, UniProt Q6ZMJ4 21-242)", "T1 sequence": "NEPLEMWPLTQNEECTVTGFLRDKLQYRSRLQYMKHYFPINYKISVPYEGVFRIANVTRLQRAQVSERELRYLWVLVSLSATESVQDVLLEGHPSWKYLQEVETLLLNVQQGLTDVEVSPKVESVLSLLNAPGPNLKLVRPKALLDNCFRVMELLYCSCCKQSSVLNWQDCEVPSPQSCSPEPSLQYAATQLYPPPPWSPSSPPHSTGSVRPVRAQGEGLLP"}, "mature Human IL-34 [2]": {"molecular_target": "T1, mature Human IL-34", "remark": "listed apart in the source"}, "[3]": {"molecular_target": "IL-34 (species not stated)", "sequence (Q8R1R4 21-235)": "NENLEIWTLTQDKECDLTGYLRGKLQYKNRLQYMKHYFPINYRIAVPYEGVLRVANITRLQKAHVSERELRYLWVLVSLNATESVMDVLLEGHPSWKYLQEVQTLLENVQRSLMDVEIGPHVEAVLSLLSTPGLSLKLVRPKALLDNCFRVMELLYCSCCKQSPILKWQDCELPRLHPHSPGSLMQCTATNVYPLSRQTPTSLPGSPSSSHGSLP"}},
  "data": [
    {"binder": "B1", "values": [
      {"measurement": "IC50; inhibition of human IL-34 induced CSF1R dimerization, PathHunter eXpress assay", "setting": "mature Human IL-34 [1]", "result": 352, "unit": "pM"},
      {"measurement": "IC50; neutralization of human IL-34 induced luciferase reporter activity, hCSF1R 293 SRE cells", "setting": "mature Human IL-34 [2]", "result": 560, "unit": "pM"},
      {"measurement": "IC50; inhibition of IL-34 induced ERK phosphorylation in NIH-3T3/CSF1R cells", "setting": "[3]", "result": 63200, "unit": "pM"}
    ]}
  ]
}
